# About 2,200 (0.71%) of roughly 310,000 compounds showed an effect of 50% or more. Effects have a minus sign here. This is one part of the list.
# Target: human ether-à-go-go-related gene (hERG) potassium channel (human, UniProt Q12809)
# Experiment: primary screen, population patch clamp on CHO cells stably expressing hERG
# Sequence of human ether-à-go-go-related gene (hERG) potassium channel (Q12809 whole entry, looked up): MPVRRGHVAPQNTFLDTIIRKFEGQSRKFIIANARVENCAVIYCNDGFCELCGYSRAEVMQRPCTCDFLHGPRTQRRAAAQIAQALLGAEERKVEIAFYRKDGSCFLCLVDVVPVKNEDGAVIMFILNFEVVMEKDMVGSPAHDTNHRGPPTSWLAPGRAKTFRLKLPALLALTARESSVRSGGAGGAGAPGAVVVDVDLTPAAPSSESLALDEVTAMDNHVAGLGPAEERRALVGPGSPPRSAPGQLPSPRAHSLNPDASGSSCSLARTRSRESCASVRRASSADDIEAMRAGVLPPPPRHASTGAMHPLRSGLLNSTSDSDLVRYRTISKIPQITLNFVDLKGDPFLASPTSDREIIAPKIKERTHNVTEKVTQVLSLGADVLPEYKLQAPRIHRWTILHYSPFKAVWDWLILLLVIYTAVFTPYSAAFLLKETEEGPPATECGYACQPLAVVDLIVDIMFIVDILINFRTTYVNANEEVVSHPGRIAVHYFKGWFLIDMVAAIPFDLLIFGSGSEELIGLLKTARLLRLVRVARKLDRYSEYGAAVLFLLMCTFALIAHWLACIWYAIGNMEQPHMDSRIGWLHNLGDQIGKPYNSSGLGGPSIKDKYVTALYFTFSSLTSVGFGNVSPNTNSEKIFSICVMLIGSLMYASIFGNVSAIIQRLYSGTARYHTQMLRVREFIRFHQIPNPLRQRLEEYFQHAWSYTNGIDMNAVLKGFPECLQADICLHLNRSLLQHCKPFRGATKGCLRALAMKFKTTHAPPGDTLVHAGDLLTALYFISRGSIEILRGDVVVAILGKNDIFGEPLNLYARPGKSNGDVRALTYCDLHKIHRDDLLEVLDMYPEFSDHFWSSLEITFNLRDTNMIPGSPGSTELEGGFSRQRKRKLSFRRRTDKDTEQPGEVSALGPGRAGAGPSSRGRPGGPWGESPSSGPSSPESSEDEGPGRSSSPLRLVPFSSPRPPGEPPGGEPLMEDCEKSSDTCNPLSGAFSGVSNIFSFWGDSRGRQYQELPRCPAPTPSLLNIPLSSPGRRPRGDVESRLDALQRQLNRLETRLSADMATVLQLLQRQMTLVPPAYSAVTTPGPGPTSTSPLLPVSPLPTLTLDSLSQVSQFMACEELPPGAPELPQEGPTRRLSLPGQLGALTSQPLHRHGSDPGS
row,Compound,"hERG current change (%, negative = inhibition) at 1uM"
1,Cl.N=c1sccn1CC(=O)N1CCc2ccccc21,5.01%
2,O=C(CN1C(=O)NC(c2ccccc2)(c2ccccc2)C1=O)Nc1ccc2[nH]c(=O)[nH]c2c1,10.6%
3,O=C(CCS(=O)(=O)c1cc2c(cc1Cl)NC(=O)CO2)NCCc1ccccc1,13.2%
4,COC(=O)c1cc(S(=O)(=O)NCc2cccc(OC)c2)cn1C,-4.99%
5,O=C(Cc1ccccc1)Nc1ccc(NC(=O)C2CC2)nc1,6.56%
6,O=C(Nc1cc(S(=O)(=O)N2CCOCC2)ccc1OCC(F)(F)F)c1ccc(N2CCCC2=O)cc1,1.86%
7,Cc1cccn2c(=O)c(C=O)c(Cl)nc12,8.55%
8,CCN1CCN(CC(=O)Nc2nc3ccc(C)cc3s2)CC1,9.7%
9,O=C1OCCC1Sc1nc2ccccc2n1Cc1ccccc1 (centres unmarked),-16.4%
10,CCOC(=O)C(NC(=O)c1cccc(Cl)c1)(Nc1sc2c(c1C(N)=O)CCC2)C(F)(F)F (centres unmarked),4.69%
11,CCOC(=O)c1c(N2C(=O)Nc3cc(Cl)c(Cl)cc3N2O)sc2c1CCCCC2,16.3%
12,Cc1ccccc1/C(N)=N/OC(=O)c1ccc(F)cc1,9.14%
13,O=C(Nc1nccs1)C(c1ccccc1)N1CCCCC1 (centres unmarked),7.57%
14,O=C(Nc1ccc(N2CCCCCC2)cc1)c1ccc[nH]1,4.22%
15,CCN(CC(=O)NC(C)(C)C)C(=O)C(c1ccccc1)c1ccccc1,10%
16,CCOC(=O)c1cn(Cc2ccc(C)cc2)c2cc(F)ccc2c1=O,12.5%
17,Cc1ccccc1-c1nc(CS(=O)(=O)CC(=O)NCCCN2CCCC2=O)c(C)o1,6.98%
18,O=C(NCCCn1ccnc1)c1cn(-c2ccccc2)nc1-c1ccccc1,-4.78%
19,Cc1ccc(-c2cc(C(F)(F)F)n3nc(C(=O)Nc4ccon4)cc3n2)cc1C,7.99%

row,Compound,"hERG current change (%, negative = inhibition) at 1uM"
1,O=[N+]([O-])c1cc(F)c(N2CCCC2)cc1N1CCNCC1,0.622%
2,CCCN(Cc1ccccc1)C(=S)NC(=O)c1ccccc1[N+](=O)[O-],13%
3,O=C(Nc1cc2c(oc1=O)CCCC2=O)c1ccc(Cl)cc1,0.979%
4,CC(C)(C)OC(=O)N1CC=C2C(C#N)=C(N)C(C#N)(C#N)C(c3cccs3)C2C1 (centres unmarked),13.4%
5,O=C(Nc1ccccc1C(=O)N1CCN(Cc2ccccc2)CC1)c1ccccn1,5.23%
6,O=C(COc1ccccc1[N+](=O)[O-])N1CCN(c2ccccn2)CC1,12.5%
7,Cc1cc2nc3c(nc2cc1C)C1(C(=O)O)CCC3(C)C1(C)C (centres unmarked),2.9%
8,Cc1ccc(S(=O)(=O)N2CCOCC2)cc1C(=O)Nc1c(C)n(C)n(-c2ccccc2)c1=O,6.42%
9,CCc1ccc(C2=NN(C(=O)CCC(=O)O)C(c3cccs3)C2)cc1 (centres unmarked),16.5%
10,Cl.O=C(Nc1ncc([N+](=O)[O-])s1)c1cccs1,16.1%
11,CC(=O)Oc1cccc(C(=O)Nc2c[nH]c(=O)[nH]c2=O)c1,13.8%
12,Cc1ccccc1-c1cccc(CN2CCN(C)C(CCO)C2)c1 (centres unmarked),14.4%
13,CCc1nnc(NC(=O)CSc2nccn2-c2cccc(C)c2)s1,12.3%
14,COc1ccc(S(=O)(=O)N2CCC(C(=O)Nc3cc(Cl)ccc3N3CCOCC3)CC2)cc1OC,11.9%
15,O=C1/C(=C\c2ccc3c(c2)OCO3)CCC/C1=C/c1ccc2c(c1)OCO2,8.52%
16,COC(=O)c1cccc(Cn2nc(C)c([N+](=O)[O-])c2C)c1,4.85%
17,Cc1cc([N+](=O)[O-])cc2c1NC(=O)C2(O)N1CCCC(C)C1 (centres unmarked),10.9%
18,Cc1cccc(NS(=O)(=O)c2coc(C(N)=O)c2)c1C,7.84%
19,CC(=O)Nc1ccc(-n2nnnc2SCC(=O)NC2CCCC2)cc1,9.86%

row,Compound,"hERG current change (%, negative = inhibition) at 1uM"
1,C/C(=N\N1CCN(c2ccc(Cl)cc2)CC1)c1cccc([N+](=O)[O-])c1,-2.33%
2,CS(=O)(=O)Nc1cccc(C2=NN(S(=O)(=O)c3ccccc3)C(c3cccs3)C2)c1 (centres unmarked),7.1%
3,CN(C(=O)COC(=O)COc1ccccc1F)C1CCS(=O)(=O)C1 (centres unmarked),11.9%
4,CCCN(C(=O)COC(=O)c1cc(CC)c(C)s1)c1c(N)n(Cc2ccccc2)c(=O)[nH]c1=O,15%
5,CC(=O)Oc1ccc2occ(C(=O)c3cccs3)c2c1,7.04%
6,COc1ccc(NC(=O)C2CC(c3c(F)cccc3Cl)=NO2)cc1OC (centres unmarked),12.2%
7,COC(=O)c1ccc(CN2CCc3ccccc32)cc1,16.2%
8,CC(Sc1nnc(-c2ccco2)n1N)C(=O)NCC1CCCO1 (centres unmarked),12.8%
9,COC(=O)c1ccccc1NC(=O)COC(=O)c1cccnc1,17.2%
10,COCCNC(=O)C(=O)NNS(=O)(=O)c1ccc(Cl)cc1,0.519%
11,COc1ccccc1CCC(=O)Nc1cccc(S(=O)(=O)N2CCOCC2)c1,7.47%
12,Nc1n[nH]c(N)c1N=Nc1cccc(C(F)(F)F)c1,13.3%
13,O=C(CN1C(=O)N/C(=C\c2ccccc2OCc2ccc(C(=O)O)cc2)C1=O)Nc1ccc(F)cc1,13.8%
14,CN(C(=O)CSc1nc2ccccc2c(=O)n1-c1ccc(F)cc1)C1CCS(=O)(=O)C1 (centres unmarked),5.93%
15,COc1ccc(-c2cc(N3C(=O)Nc4ccccc4N3O)n[nH]2)cc1,5.52%
16,CCOC(=O)C1CCCN(C2CCN(Cc3nc(Cc4ccccc4)no3)CC2)C1 (centres unmarked),-12.1%
17,Cc1ccc(-c2csc(Nc3ccc(S(N)(=O)=O)cc3)n2)o1,15.5%
18,COC(=O)C1=C(C(=O)OC)[C@@H]2N(C)c3ccc(OC)cc3[C@@]23C[C@@H](C(=O)OC)N(C(=O)NCCBr)C3=N1,11.5%
